TGI and GI50 data for 46 compounds are collected here from PubChem BioAssay (NCI).

Where “and” joins values, the source holds several entries; their conditions need not be identical. Equal entries are not always repeated.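 96-well plates; 48 h exposure; 5 concentrations. Endpoints by linear interpolation between flanking doses. Not reached: highest tested concentration assigned. GI50 is the concentration that inhibits growth by half. TGI: concentration producing complete growth inhibition.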 Peptide text beside a SMILES is read from it.

This assay deals with NCI-H322M lung. Briefly: inhibition of tumour cell growth, NCI panel, 48 h.

In turn, `CC(=O)O/C=C\OC1CCCC1(c1ccccc1)c1ccccc1` (stereo unspecified) yielded a TGI of 25.1 µM. The compound `CC(=O)OC[C@H]1O[C@@H](O[C@H]2[C@H](OC(C)=O)C=CO[C@@H]2COC(C)=O)C(OC(C)=O)[C@H]2OC(C)(C)O[C@H]21` (stereo partly specified) returned a TGI above 100 µM.

Consider `O=C(c1ccccc1)C(c1ccccc1)C1(O)C(=O)Nc2c(Cl)cc(Cl)cc21` (stereo unspecified), for which the TGI is 40.4 µM. Same read-out and setting: the same measure for `O=C1C(=O)N(C(=O)c2ccc(Cl)c(Cl)c2)c2ccccc21`: above 100 µM. As to `COc1ccc2c(c1)[nH]c(=O)c1c3cc(C)c(C)cc3cn21`, the GI50 is 0.052 µM and the TGI was found to be 2.1 µM. Consider `Cc1ccc2[nH]cc(-c3nc(-c4c[nH]c5ncccc45)cs3)c2c1`, for which the GI50 is above 100 µM and the TGI was above 100 µM. Consider `CC(=O)O[C@H]1CC[C@@]2(C)C(=CC[C@@H]3[C@@H]2CC[C@]2(C)C(c4cccnc4)=CC[C@@H]32)C1`, for which the GI50 was 27.5 µM and the TGI was above 100 µM. `Cc1c(C)c(C)c(-n2[nH]c(=O)n(C)c2=O)c(C)c1C` registered a TGI above 100 µM. On the same count and under the same terms, the same measure for `COc1cc2c3cc1Oc1c(O)c(OC)cc4c1[C@H](Cc1ccc(cc1)Oc1cc(ccc1O)C[C@H]3N(C)CC2)N(C)CC4`: 43.4 µM.

As for `CN1CC[C@@H](c2c(O)cc(O)c3c(=O)cc(-c4ccccc4Cl)oc23)[C@@H](O)C1`, the GI50 was 0.123 µM and 0.0667 µM; the TGI is 0.49 µM and 1.05 µM. The compound `CN(C)c1ccc(/C=N/Nc2nc3ccccc3c(=O)n2-c2ccccc2)cc1` came in with a TGI above 100 µM.

On to `COC(=O)C12Oc3ccc(-c4ccc5c(c4O)C(=O)C4=CCC(C)C(O)C4(C(=O)OC)O5)c(O)c3C(=O)C1=CCC(C)C2O` (stereo unspecified), for which the TGI was 13.4 µM.

`COc1cccc2cc(C)c(C(=O)c3ccccc3)nc12` returned a TGI above 100 µM. With `COc1ccc2c(c1)/C(=C\c1c(C)nc3sc(C)cn13)C(=O)N2C`, the GI50 is 7.11 µM and the TGI is 52.6 µM. As to `CN(C)c1ccc(N2C(=S)SC(=Nc3ccccc3)C2=Nc2ccccc2)cc1`, the TGI is above 100 µM. The same measure, in the same setting: then `COC(=O)C1CC2(CC3=C1CCCC3)OCCO2` (stereo unspecified), with above 100 µM. For `CN(C)c1cccc2c(S(=O)(=O)N[C@H]3CC[C@H]4[C@@H]5CCc6cc(O)ccc6[C@H]5CC[C@]34C)cccc12`, the GI50 is 3.99 µM and the TGI is 25.8 µM.

Compound `Cc1cc2c(c(C#N)c1C)NC(=O)CCC2=O` came in with a TGI above 100 µM. The same measure, in the same setting: then `N/N=C(\C(=O)Nc1c(Cl)cc([N+](=O)[O-])cc1Cl)C(c1cnc2ccc([N+](=O)[O-])cc2n1)[N+](=O)[O-]` (stereo unspecified), with above 100 µM; and `COC1=CC(=O)c2ccccc2C1(CCC=C(C)C)C1=NC(C)(C)CO1` (stereo unspecified), with above 100 µM. Still for that read-out and setting: then `Cc1nc2c(nc1C)C(=O)c1cc(O)ccc1C2=O`, with above 100 µM. On the same count and under the same terms, then `Nc1nc(SCc2ccccn2)c2ncn(C3CCCC3)c2n1`, with above 100 µM; and `O=C(CCCn1cnc([N+](=O)[O-])n1)NCCn1ccnc1[N+](=O)[O-]`, with above 100 µM; and `CC(C)(NC(=O)OCc1ccccc1)C(=O)NC(Cc1ccccc1)C(=O)O` (stereo unspecified) (HELM PEPTIDE1{[O=C(OCc1ccccc1)[*:2]].[Aib].[O=C(O)C(Cc1ccccc1)N[*:1]]}$$$$V2.0), with above 100 µM. `Nc1ccn(CCOC(=O)c2ccccc2)c(=O)n1` had a TGI above 100 µM. Compound `O=C1CC(O)C=C1Nc1ccc(Cl)cc1` (stereo unspecified) displayed a TGI above 100 µM. As to `COc1cc2c(cc1OC)C(=O)/C(=C/c1cccc(OCC(=O)c3ccccc3)c1)C2`, the GI50 was 43.6 µM and the TGI is above 100 µM. Compound `COc1cc(CCc2ccc(OCCN(C)C)cc2)cc(OC)c1OC` yielded a TGI above 100 µM.

Consider `Cn1c2c(c3ccccc31)CCN(CCCCN1CCc3c(n(C)c4ccccc34)C1=O)C2`, for which the TGI was above 100 µM.

For `CC(=O)O/C=C(/C=C/OC(C)=O)C(C/C=C(\C)C#CC=C(C)C)OC(C)=O` (stereo unspecified), the TGI is above 100 µM.

For `COc1cc(/C(C#N)=C/c2ccc3c(c2OC)OCO3)cc2c1OCO2`, the GI50 was 0.754 µM and the TGI amounted to 27.9 µM. `O=C(O)c1c(-c2cccc3ccccc23)sc(-c2cccc3ccccc23)c1C(=O)O` displayed a TGI above 100 µM. The compound `COc1ccc(C2=C(OC(=O)N(C)C)c3cccn3-c3cc(C(F)(F)F)ccc3S2)cc1` showed a TGI above 10 µM. `CCC[CH2][Sn-]([CH2]CCC)([CH2]CCC)[O]c1cc(Cl)c(Cl)cc1Cl`: the GI50 is 0.193 µM and the TGI is 0.498 µM. Regarding `CCOC(=O)C(=O)Nc1nc2c(s1)C(=O)c1ccccc1C2=O`, the TGI came out at 30.3 µM.

Consider `CC(=O)Oc1ccc(/C=C/C(=O)O[C@@H](C)[C@H](C)OC(=O)/C=C/c2ccc(OC(C)=O)c(OC(C)=O)c2)cc1OC(C)=O`, for which the TGI was determined as 61.2 µM. As to `Cc1cnc2c(C)ccc([N+](=O)[O-])c2c1NCCCN(C)C`, the TGI was above 100 µM. Still for that read-out and setting: the same measure for `Cc1nc2ccc(S(=O)(=O)Nc3ccc(Cl)cc3)cc2c(=O)n1NC(=O)CNc1ccc(Cl)cc1`: above 100 µM. Turning to `O=C(Nc1ccccc1)O/N=C(/CBr)c1ccccc1`, the TGI amounted to 42.9 µM.

The compound `Cc1ccc2c(=O)cc(-c3csc4ccccc34)[nH]c2n1` displayed a TGI of 66.3 µM. Compound `CCOc1ccccc1NC(=O)C(=O)CC(=O)c1c(C)n([O-])c2ccccc2[n+]1=O` showed a TGI above 100 µM. For `COc1ccc2[nH]c3c(c2c1)CCN(C)CC3`, the TGI was above 100 µM. As for `O=C(CN1CCN(c2ncccn2)CC1)Nc1ccc(Cl)cc1C(=O)c1ccccc1Cl`, the GI50 is above 100 µM and the TGI is above 100 µM. Compound `N#CC1=C2Sc3ccccc3N2[C@H](c2ccccc2)[C@H]2COC(=O)[C@@H]12` displayed a TGI above 100 µM. For `c1ccc2c(-c3cnc(-c4c[nH]c5ccccc45)cn3)c[nH]c2c1`, the TGI was above 100 µM.

`CC1=C(C(=O)Nc2c(C)cccc2C)C(c2ccc3c(c2)OCO3)C(C(=O)Nc2c(C)cccc2C)=C(C)N1` showed a TGI of 26.7 µM.
